# From the supplement of paper PMC8728848
# The other results are listed elsewhere or left out.
# B1: Cohesin-marm-DC-ASGPR-CRD (protein)
# chain: LDITSHHHHHHDDLDAVRIKVDTVNAKPGDTVRIPVRFSGIPSKGIANCDFVYSYDPNVLEIIEIEPGDIIVDPNPDKSFDTAVYPDRKIIVFLFAEDSGTGAYAITKDGVFATIVAKVKEGAPNGLSVIKFVEVGGFANNDLVEQKTQFFDGGVNVGDTTEPATPTTPVTTPTTTDDLDAASCPINWVEHQGSCYWFSRSGKTWPEAERYCQLENTHLVVINSREEQNFVQAHLGSAYTWMGLSDPEGVWKWVDGTDYSSGFQNWKPGQPDDWQGHGLGGGEDCAHFHPDGRWNDDVCQRSYHWVCEAGLTQASQDSH
# What was measured:
# [1] = biological target: Neu5Gc(a2-8)Neu5Gc(a2-6)Gal(b1-4)GlcNAc; assay: glycan array binding signal (z-score within array); higher = stronger binding; settings: glycan notation: IUPAC condensed, linker removed
# Method in brief: (§1)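 Columns mapping to the same glycan were averaged after glycan names were converted to IUPAC-condensed notation. The data come from 3228 arrays in the Consortium for Functional Glycomics database, limited to those with an available protein sequence. Binding is reported as a within-array Z-score averaged across arrays of one protein sequence and across linkers.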
# [2] = biological target: Neu5Gc(b2-6)Gal(b1-4)GlcNAc; assay: as above; settings: glycan notation: IUPAC condensed, linker removed
# Method in brief: as §1
binder,measurement,setting,value
B1,glycan array binding signal (z-score),[1],-0.447
same,glycan array binding signal (z-score),[2],-0.434
